{
  "source": "the RNAGym collection of RNA variant scans (doi:10.7554/elife.90254)",
  "parents": {"B1": {"name": "LINE1-full (parent)", "chain": "UACGUAGGUGGUUUUCCCCUGAUAGUGCUAAGGGGGCCUGGAAGUUUGGACUGGGCAGAGCUCAACACAGCGUGGCAAAGUGGCUGUGGCUAGACUGCCUCUCUGGAUUCCUCGUCACUCAGCAGGGCAUCUCUGAGAGAAAUGCC"}},
  "note": "Read counts are not given, so values of variants with three or more changes are uncertain.",
  "data": [
    {"variants_of": "B1", "experiment": "self-cleavage, relative activity (ratio to wild type); higher = more cleavage; in vitro, sequencing; the parent is a self-cleaving ribozyme", "values": [
      {"variant": "A2G U39A U47C U87C", "self-cleavage": 2.16},
      {"variant": "A2U G7A A138G", "self-cleavage": 0.71},
      {"variant": "U1C U12C U52A", "self-cleavage": 1.19},
      {"variant": "A2G U20A U62C A142G", "self-cleavage": 0.66},
      {"variant": "U1C U5A U62C U130C", "self-cleavage": 0.41},
      {"variant": "A2G G53U U115A", "self-cleavage": 0.95},
      {"variant": "U1C U13C A67G G93A A129G U143C", "self-cleavage": 0},
      {"variant": "A2G U29C U132C", "self-cleavage": 0.44},
      {"variant": "A2G U5C U9A U46A C98U", "self-cleavage": 0.71},
      {"variant": "U1C U13C U15A C38U U52A A64G U109A", "self-cleavage": 0.18},
      {"variant": "U1C A79U A129U", "self-cleavage": 1.81},
      {"variant": "A2G U26A A43G A69G A78G A141U", "self-cleavage": 0.64},
      {"variant": "A2G G8C U100A U115A U143C", "self-cleavage": 0.66},
      {"variant": "U1C U20C U52C A78G G125A", "self-cleavage": 1.08},
      {"variant": "U1A U96C U112C", "self-cleavage": 0.27},
      {"variant": "U1C U81A A92U U143A", "self-cleavage": 0.48},
      {"variant": "A2G U115C A121U", "self-cleavage": 0.32},
      {"variant": "U1C U15A U102C U119C", "self-cleavage": 2.22},
      {"variant": "U1C G33A A42G A78G", "self-cleavage": 1.5},
      {"variant": "A2C A22G U52C A141G", "self-cleavage": 2.76},
      {"variant": "A2G G34U A117U U119A A124G A138G", "self-cleavage": 1.51},
      {"variant": "A2G A65C C110A", "self-cleavage": 0.15},
      {"variant": "A2G A67G A94G", "self-cleavage": 0.16},
      {"variant": "U1C G8C A31U A59G A77G U112C", "self-cleavage": 0},
      {"variant": "U1C U20C U46C", "self-cleavage": 2.87},
      {"variant": "A2G U13A U85C A138G", "self-cleavage": 0},
      {"variant": "U1A U73C U87G", "self-cleavage": 0.66},
      {"variant": "A2G U12G U15C U130C A140G", "self-cleavage": 2.3},
      {"variant": "U1C U26A U87C", "self-cleavage": 0.19},
      {"variant": "A2G C16U U45C U52A A92G A142G", "self-cleavage": 0.88},
      {"variant": "A2G G36C G55C A79G", "self-cleavage": 0.09},
      {"variant": "A2U C56U A121G", "self-cleavage": 0.16},
      {"variant": "A2C G33U U109A A140G", "self-cleavage": 1.05},
      {"variant": "U1C U45G U62C U87C", "self-cleavage": 0.27},
      {"variant": "U1C C71U U115C", "self-cleavage": 0.68},
      {"variant": "A2C C17A C63A U73A U87C A138G", "self-cleavage": 0.02},
      {"variant": "U1C A50G A94G", "self-cleavage": 0},
      {"variant": "U1C A22G A79U U91C G144A", "self-cleavage": 1.02},
      {"variant": "U1C A64G U81C A129U A138U", "self-cleavage": 0.19},
      {"variant": "U1A U115C A136G", "self-cleavage": 1.69},
      {"variant": "U1C U87C A136G", "self-cleavage": 0.3},
      {"variant": "U1C C37U U45A A50G G75A U85A A142G", "self-cleavage": 0.07},
      {"variant": "A2G A24G U134C", "self-cleavage": 1.07},
      {"variant": "U1C U47G U112C", "self-cleavage": 0.2},
      {"variant": "A2G U85A U102C", "self-cleavage": 0.3},
      {"variant": "U1C A2G U52G", "self-cleavage": 0.82},
      {"variant": "U1C U29C U47A A64G A94G", "self-cleavage": 0},
      {"variant": "U1C U20C A59G", "self-cleavage": 0.34},
      {"variant": "U1C U143G C145U", "self-cleavage": 0.36},
      {"variant": "A2G U47C A121G", "self-cleavage": 2.04},
      {"variant": "A2G U102C A141G", "self-cleavage": 1.46},
      {"variant": "A2G U62C A138G", "self-cleavage": 0.08},
      {"variant": "A2G U12G A43G G82A", "self-cleavage": 0.69},
      {"variant": "A2G U29C U39C A64U U132A", "self-cleavage": 0.38},
      {"variant": "U1C U14C A77U U91C", "self-cleavage": 0.12},
      {"variant": "U1C A92G U102C", "self-cleavage": 0.18},
      {"variant": "U1C U12C A78G U119A C146A", "self-cleavage": 0.71},
      {"variant": "A2G U39A A43C A79G", "self-cleavage": 1.84},
      {"variant": "A2G U12C U20A U47A U115C A121U U143C", "self-cleavage": 0.38},
      {"variant": "A2G A78G U112A", "self-cleavage": 0.65},
      {"variant": "A2U C28U A107G A136G", "self-cleavage": 1.02},
      {"variant": "U1C A42U U115C", "self-cleavage": 0.37},
      {"variant": "A2G U46A A59G A140G", "self-cleavage": 0.57},
      {"variant": "A2G G33C U81A A138G A142G", "self-cleavage": 1.73},
      {"variant": "A2G G4A U45C", "self-cleavage": 1.62},
      {"variant": "U1C U20A U39C C61A", "self-cleavage": 0.1},
      {"variant": "A2G U29C C38U U46C A59U", "self-cleavage": 1.64},
      {"variant": "U1C C63U A124G", "self-cleavage": 0.11},
      {"variant": "A2G A43G U109C C111U", "self-cleavage": 0.53},
      {"variant": "U1A U81C U132A", "self-cleavage": 1.46},
      {"variant": "A2G C95U U115C A142G", "self-cleavage": 1.31},
      {"variant": "U1C U12G A31G G48A A67G", "self-cleavage": 0},
      {"variant": "U1C C71G U85C A141G", "self-cleavage": 0.06},
      {"variant": "A2G U12C C38A A43G U87A", "self-cleavage": 0.36},
      {"variant": "A2U C3A C17U A42G A121U", "self-cleavage": 1.25},
      {"variant": "A2G G25C U46C U87A G93U A117G", "self-cleavage": 0.4},
      {"variant": "A2G A22G A43G C66A A79G U91C", "self-cleavage": 0.3},
      {"variant": "A2G U9C U20A A121U U132C", "self-cleavage": 0.95},
      {"variant": "A2G A31G A77U U100C U115A", "self-cleavage": 0.92},
      {"variant": "U1C C3U U100C", "self-cleavage": 0.31},
      {"variant": "A2G A78G U85C G88C U115C", "self-cleavage": 0},
      {"variant": "A2G A77G U81C", "self-cleavage": 1.79},
      {"variant": "U1C U52C U73C G75A A141G", "self-cleavage": 0.42}
    ]}
  ]
}
